Drawing on a collection of fitness landscapes (doi:10.1038/s41467-024-54723-y), this text covers TetR repression strength for 102 sequences.

In all, about 18,000 sequences were measured (“TetR repression strength (sort-seq, GFP reporter)”: median about 0.23, highest 2% from about 0.68 on). The list shows a part of the results.

The target in the assay is TetR (class B, Tn10) (UniProt P04483). The assay can be described thus: TetR repression strength (sort-seq, GFP reporter) (relative to tetO2 = 1); higher = stronger repression. As to conditions: E. coli. An outline of the steps: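 Three independent transformations of E. coli SIG10-MAX were made with a low-copy plasmid library randomizing eight operator positions between a constitutive promoter and sfGFP, with constitutive TetR. Following 5 h at 37 °C in LB plus 50 µg/mL chloramphenicol, 10^6 cells went through FACS into 13 fluorescence bins, and each bin was sequenced by Illumina. Repression strength was defined as the top bin index plus one minus the read-weighted mean bin, divided by the unaltered operator's value. Averages included only members reaching ≥30 reads in all replicates with a CV ≤0.5.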
Sequence of UniProt P04483 (P04483 whole entry): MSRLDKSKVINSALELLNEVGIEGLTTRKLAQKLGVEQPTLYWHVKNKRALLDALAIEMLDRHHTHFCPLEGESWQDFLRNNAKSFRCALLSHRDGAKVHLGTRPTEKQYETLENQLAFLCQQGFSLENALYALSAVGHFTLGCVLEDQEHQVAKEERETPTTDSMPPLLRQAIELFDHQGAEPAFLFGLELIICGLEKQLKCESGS
As to TCCCGGGTAGTTGGCGAGA, the TetR repression strength came to 0.479.
On to TCCCGCCCAGTAGCTGAGA, for which the TetR repression strength is 0.41.
On to TCCCGGAGAGTACACGAGA, for which the TetR repression strength is 0.0942.
The same measure for TCCCAGAGAGTCACGGAGA: 0.234.
For TCCCGCGTAGTGTTTGAGA the value was 0.622.
For TCCCTATAAGTCGGCGAGA, the TetR repression strength worked out at 0.286.
On to TCCCAAGGAGTATCGGAGA, for which the TetR repression strength is 0.131.
TCCCTGACAGTCTGCGAGA yielded a TetR repression strength of 0.287.
Take TCCCAACGAGTTGGGGAGA: the TetR repression strength was found to be 0.0864.
TCCCTACGAGTGCACGAGA returned a TetR repression strength of 0.104.
Take TCCCATGTAGTACCGGAGA: the TetR repression strength is 0.095.
TCCCCTAGAGTCGCAGAGA registered a TetR repression strength of 0.264.
For the sequence TCCCCGATAGTTTCCGAGA, the TetR repression strength was found to be 0.332.
As for TCCCGCACAGTGACGGAGA, the TetR repression strength amounted to 0.117.
For TCCCAGCGAGTTTTTGAGA the value was 0.643.
The same measure for TCCCTATAAGTTTCGGAGA: 0.3; for TCCCACGCAGTCGTAGAGA: 0.336; for TCCCGGGTAGTGGCAGAGA: 0.238.
In the case of TCCCATATAGTGTATGAGA, the TetR repression strength stood at 0.136.
Turning to TCCCGGGTAGTCGATGAGA, the TetR repression strength is 0.22.
For the sequence TCCCTTTCAGTTTCAGAGA, the TetR repression strength came to 0.206.
The same measure for TCCCGCCAAGTTGATGAGA: 0.15; for TCCCTACGAGTGCGGGAGA: 0.0755; for TCCCGAATAGTATCAGAGA: 0.207.
Regarding TCCCCAGAAGTCGCTGAGA, the TetR repression strength is 0.192.
Turning to TCCCGGATAGTGTCAGAGA, the TetR repression strength amounted to 0.0952.
TCCCGGTCAGTAAGGGAGA had a TetR repression strength of 0.199.
For TCCCTTCTAGTTTTAGAGA the value was 0.512.
As to TCCCTGAGAGTACCTGAGA, the TetR repression strength was determined as 0.301.
With TCCCTTATAGTGTGGGAGA, the TetR repression strength turned out to be 0.0444.
The same measure for TCCCGAGGAGTATAGGAGA: 0.134; for TCCCACTTAGTGCGAGAGA: 0.0746.
In turn, TCCCGCAGAGTGATTGAGA showed a TetR repression strength of 0.0754.
Regarding TCCCCGAGAGTCCAAGAGA, the TetR repression strength was determined as 0.25.
The same measure for TCCCAATTAGTATTGGAGA: 0.321; for TCCCGTAAAGTGAACGAGA: 0.109; for TCCCTATTAGTGGGCGAGA: 0.229.
TCCCTTGAAGTGGACGAGA had a TetR repression strength of 0.251.
For TCCCGTGAAGTACGCGAGA the value was 0.217.
Consider TCCCATGTAGTTATTGAGA, for which the TetR repression strength amounted to 0.196.
The same measure for TCCCTAGGAGTGCTCGAGA: 0.395.
In the case of TCCCTCGTAGTGAAAGAGA, the TetR repression strength came out at 0.159.
Sequence TCCCGTTTAGTTGACGAGA came in with a TetR repression strength of 0.355.
TCCCTGCTAGTCTGAGAGA displayed a TetR repression strength of 0.24.
The sequence TCCCTATAAGTTTGAGAGA yielded a TetR repression strength of 0.415.
Sequence TCCCATCTAGTCTTAGAGA displayed a TetR repression strength of 0.359.
The sequence TCCCGGAGAGTATAAGAGA registered a TetR repression strength of 0.289.
TCCCACAAAGTAATTGAGA yielded a TetR repression strength of 0.271.
The sequence TCCCAGGCAGTTGGTGAGA came in with a TetR repression strength of 0.258.
TCCCCAATAGTGGCGGAGA yielded a TetR repression strength of 0.153.
The sequence TCCCCACTAGTGGTCGAGA registered a TetR repression strength of 0.233.
The same measure for TCCCTTGTAGTGCTGGAGA: 0.314; for TCCCTTATAGTATCCGAGA: 0.358.
TCCCTTTCAGTGCCCGAGA yielded a TetR repression strength of 0.307.
On to TCCCGAGCAGTCGGGGAGA, for which the TetR repression strength was determined as 0.0869.
The same measure for TCCCGTAAAGTAGCCGAGA: 0.
The same measure for TCCCTTTCAGTCCCCGAGA: 0.359; for TCCCCATGAGTGTTCGAGA: 0.25.
TCCCGGGCAGTAGCGGAGA displayed a TetR repression strength of 0.243.
TCCCAATGAGTGGCCGAGA: the TetR repression strength is 0.31.
In turn, TCCCTATGAGTACGGGAGA registered a TetR repression strength of 0.485.
TCCCTCGAAGTACTGGAGA yielded a TetR repression strength of 0.203.
The sequence TCCCTGACAGTTACCGAGA gave a TetR repression strength of 0.294.
The same measure for TCCCGATGAGTGTGAGAGA: 0.341; for TCCCGAGGAGTGTGTGAGA: 0.174.
The same measure for TCCCGAGGAGTAGTTGAGA: 0.196; for TCCCCAGGAGTGCAAGAGA: 0.626.
The same measure for TCCCGGTGAGTGCGAGAGA: 0.189; for TCCCGTTGAGTAGCGGAGA: 0.29.
In the case of TCCCGGACAGTTGATGAGA, the TetR repression strength came out at 0.179.
Regarding TCCCGATCAGTGTCCGAGA, the TetR repression strength was found to be 0.211.
TCCCTGAAAGTGTCGGAGA: the TetR repression strength worked out at 0.066.
The same measure for TCCCGCGTAGTCCGCGAGA: 0.172; for TCCCGAACAGTGGATGAGA: 0.37.
For the sequence TCCCGTGGAGTTCTTGAGA, the TetR repression strength was found to be 0.37.
For the sequence TCCCCCGCAGTGCGCGAGA, the TetR repression strength came out at 0.18.
On to TCCCGCGGAGTGGGCGAGA, for which the TetR repression strength amounted to 0.271.
The same measure for TCCCGGCGAGTTTGGGAGA: 0.108; for TCCCGATCAGTACTTGAGA: 0.0384.
Sequence TCCCAGATAGTCAGAGAGA displayed a TetR repression strength of 0.248.
Take TCCCGGTTAGTGATGGAGA: the TetR repression strength was 0.262.
TCCCGGGCAGTCAGGGAGA: the TetR repression strength turned out to be 0.193.
Take TCCCACTCAGTTAGGGAGA: the TetR repression strength came out at 0.268.
TCCCGGTGAGTCAGCGAGA: the TetR repression strength stood at 0.305.
Consider TCCCCCGCAGTGAACGAGA, for which the TetR repression strength amounted to 0.519.
TCCCTTCGAGTTGTTGAGA: the TetR repression strength came out at 0.159.
TCCCCTAAAGTAAGTGAGA: the TetR repression strength is 0.187.
The sequence TCCCCTTGAGTCGTTGAGA yielded a TetR repression strength of 0.312.
On to TCCCGTCCAGTGGAAGAGA, for which the TetR repression strength amounted to 0.288.
For TCCCGATGAGTTGGGGAGA, the TetR repression strength turned out to be 0.13.
In turn, TCCCTCTAAGTTAGTGAGA showed a TetR repression strength of 0.241.
The same measure for TCCCTTTTAGTGCAGGAGA: 0.444.
Regarding TCCCAGAGAGTACGCGAGA, the TetR repression strength was found to be 0.249.
TCCCGATCAGTGTCTGAGA showed a TetR repression strength of 0.429.
The same measure for TCCCAAAAAGTGACTGAGA: 0.475.
In the case of TCCCGGTGAGTGTGGGAGA, the TetR repression strength was determined as 0.166.
TCCCCAGAAGTGGGTGAGA had a TetR repression strength of 0.123.
With TCCCGTACAGTCGACGAGA, the TetR repression strength amounted to 0.415.
As for TCCCTGAGAGTGTTAGAGA, the TetR repression strength stood at 0.198.
TCCCAGACAGTTGCCGAGA registered a TetR repression strength of 0.613.
With TCCCGGTCAGTAGCCGAGA, the TetR repression strength was determined as 0.2.
In the case of TCCCTGACAGTTCATGAGA, the TetR repression strength turned out to be 0.013.
